The other results are listed elsewhere or left out.
T1: UNK ZnF1-3 (human, UniProt Q9C0B0 31-174)
T1 sequence: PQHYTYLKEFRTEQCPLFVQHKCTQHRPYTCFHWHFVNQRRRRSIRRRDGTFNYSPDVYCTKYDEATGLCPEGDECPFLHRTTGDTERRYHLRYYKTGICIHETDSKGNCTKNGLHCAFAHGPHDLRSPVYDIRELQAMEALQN

B1: chr5:138700276:138700277:+_ENSG00000120727_ENST00000265192|hu_hu|FALSE|FALSE (ssRNA)
RNA: GGGAGUUCUACAGUCCGACGAUCUUCCAGCAUUUCUUGGAAACAGCGUUCAAUAAAUUCUUCUUCCCAUAACUCCUCUUCUAUUUGUCUGUUGAAUUCUUCUUCAUUUUCCAUCCACAUGUACUCUGCAAAUGGAUUGUCAUCCAACAGAGGAUUGAGCAUCA
B2: 32079262_32079382_106_5pUTR_ENSMUSG00000022781_ENSMUST00000023467|mouse|control|control (ssRNA)
RNA: GGGAGUUCUACAGUCCGACGAUCAGGGCGGAGGGGAGCGGCGCGGGGCGCGGCCGUCGCUACCGAGGCCGUGAGGCGCAGAACCCCUUGGGCCAGGGAGGGGAGGGCAGGAGCCUUCGGCAAUGGCGACGGCCCGGGCCGGAGCAACAGAGGAUUGAGCAUCA
B3: 91041409_91063878_293_CDS_ENSG00000106723_ENST00000375859|human|control|control (ssRNA)
RNA: GGGAGUUCUACAGUCCGACGAUCGUUGGCAGAUACUCCAGCAUGGCCUGCAUCAGCUCUGGACCGCUGGCCAGGUGUCUUUCCGAAUGGGGUCUUCAUUCAUCUGUAUUUAAGUGAGCAGCGGAGCUGCUGGACUAGGGUGAACAACAGAGGAUUGAGCAUCA
B4: chr7:141438946:141438947:+_ENSG00000106028_ENST00000265304|hu_mus|hu_hu_hu_mus_True|28_58 (ssRNA)
RNA: GGGAGUUCUACAGUCCGACGAUCGACGAAAUACCUGUAACACAGGUCUUCGAAACAUGGCUUCUGUUUUUCUUACAGUCUAAUCUUUAGGCUUUUCCUAAAGGAAAAACCCGAGCAAGAAAAAUGAUAAAUCAAGAAACUACACAACAGAGGAUUGAGCAUCA
B5: chr4:41607924:41607925:+_ENSG00000064042_ENST00000508501|hu_hu|motif|central (ssRNA)
RNA: GGGAGUUCUACAGUCCGACGAUCCGUUCCGCUGUAGGAUGUGCAGCUGUUUGCUGCUUUUCCCAGCCAGUAAAUGGUAACGGAUACAUUUUUCAGCUUCCUACUAUAAUCAAGGCUCUUGACUGUUACUCUGUUGGAUGUAUCCAACAGAGGAUUGAGCAUCA
B6: chr2:104521139:104521140:-_ENSMUSG00000027175_ENSMUST00000111118|mus_mus|FALSE|FALSE (ssRNA)
RNA: GGGAGUUCUACAGUCCGACGAUCGAUGCGGGAGAUCAACCCCGGGGCCUCGUGCAGGCUAGGCGAUCACUGGCCACUGUACUACAUACAAGUUGACAAAACAAGCUUUUAAAAAUCAAGUUCUAUCCAUUGGGUAUGGUGGCACAACAGAGGAUUGAGCAUCA
B7: chr7:107875085:107875086:-_ENSG00000091129_ENST00000351718|hu_mus|FALSE|FALSE (ssRNA)
RNA: GGGAGUUCUACAGUCCGACGAUCUGGGGGAGGUUUCCCUUUGGCCUCACACUGGAUUACAAUAUUCUCCCGAGGGUCAAUGAUGUAGUCUUUUGGUGACUGUUGAGUGAUGGUUGGAGGUUGUACCAGAUCGAGAGGAACAUCCAACAGAGGAUUGAGCAUCA
B8: 81600016_81601175_2457_CDS_ENSG00000153956_ENST00000356860|human|control|control (ssRNA)
RNA: GGGAGUUCUACAGUCCGACGAUCACCAUCAGUCACAACAAAUCGUGCUUUCACUCCCUUGAUAUUUUUCUGCUUACUCCAGUAAUUUUGGACAAGUUCAUUUGUAAAGCCUGCAUCAAGCAAGACUCUAUUAAUCAAAUCCGCCAACAGAGGAUUGAGCAUCA
B9: chr16:69481128:69481129:+_ENSG00000103018_ENST00000515314|hu_mus|FALSE|FALSE (ssRNA)
RNA: GGGAGUUCUACAGUCCGACGAUCACUCGGAUGGACAUCUCCAAUGUAGUACUGCUUUAGCAUCUCCCUGGCAUCAGGGGAGUGGCCGACAUCUUCAAAGCUUUCAGUUGCAUCAGCACCCGCUUGUUCCAGCAGAACCUCUUCCAACAGAGGAUUGAGCAUCA
B10: chr4:45007048:45007049:-_ENSMUSG00000049657_ENSMUST00000055028|mus_mus|FALSE|FALSE (ssRNA)
RNA: GGGAGUUCUACAGUCCGACGAUCGCUCUGACUUGCACUGAAAUUACUCCCCCUGCUCUUGUUGAGAAAAUUGGAAAUACUAAAAGAGGUCUUAUGUUCUAGAUUAUUCGUGACUUCCAAGAUGUGGAUGUCCCCGACCCUGUCCAACAGAGGAUUGAGCAUCA
B11: chr11:134117569:134117570:+_ENSG00000151502_ENST00000281187|hu_mus|FALSE|FALSE (ssRNA)
RNA: GGGAGUUCUACAGUCCGACGAUCAGAAACAUGUAAACACUGCAGCUUCUUAAUUACAAGUUGCACUGCUUGGUUUAGUACCUAUGCACUCCAGGUUUGGGAACCUUAAAGGAUGGGGAUGGGAACCUUCCCAUACUUUCACAGCAACAGAGGAUUGAGCAUCA
B12: 94768049_94770785_385_CDS_ENSG00000164953_ENST00000453321|human|control|control (ssRNA)
RNA: GGGAGUUCUACAGUCCGACGAUCACAGUGACAUUUUCCUUCGGCAGUUAAGUCACUAGGGCAAGAAAUGCAGUUCCAGCCAUCUUCUGUAACACCUUUCAUGUUUUCUGGGCACUUUUUACAAAUAAUAGCAGGUCCUCCAUUCAACAGAGGAUUGAGCAUCA
B13: chr13:103288631:103288632:+_ENSG00000134900_ENST00000376065|hu_hu|motif|central (ssRNA)
RNA: GGGAGUUCUACAGUCCGACGAUCCUGAACAGGAUCUCGGAGGUAGAUGCCACGGUUAUUUCCAACAGUAACAGUAAAACCGGAUUUAUUAGCAAAUGAUGUAUUCUGAACGAGGUAGUCAUAGGCUUUAUCAACCUGAAUAAUCAACAGAGGAUUGAGCAUCA
B14: chr8:79514811:79514812:+_ENSG00000171033_ENST00000352966|hu_hu|motif|central (ssRNA)
RNA: GGGAGUUCUACAGUCCGACGAUCCACCAAACAGACUGAAUUCAGGUGAUAUUCACAUUAAUGGAUAUUUUCAAAUGUCUCGGUAAUAAAGCAAUGGAGUCUUGAUGAAUCUGUUAGACUUAAUCAACUCAUCAACAUACAAUGCAACAGAGGAUUGAGCAUCA
B15: chr2:156005782:156005783:-_ENSMUSG00000027620_ENSMUST00000109587|mus_mus|FALSE|FALSE (ssRNA)
RNA: GGGAGUUCUACAGUCCGACGAUCGCGGUACCGCCCAACCCGAAUAUCGGGCCCCGAGGGCGUCUAGGCCCAAGCGAAUCUAAAAGAAACAAUGGGAUUAAAGGAGCCCGCGACGGAGAGCAGGGCAGCGGCUUCGGCAGCUCACAACAGAGGAUUGAGCAUCA
B16: chrX:71549400:71549401:+_ENSMUSG00000019087_ENSMUST00000019231|mus_hu|mus_mus_mus_hu_False|8_38 (ssRNA)
RNA: GGGAGUUCUACAGUCCGACGAUCGCAGUAGGAAGAGGGAAGCUCUUCAGUCCAGUGCGCUGCAGGGUGGGAAAGCAACAACACGGACACCGUCCCACCUCAAUUCCCCCCACUGGCACAGGGUCACAUCUGGGUCAUCAAAGACAACAGAGGAUUGAGCAUCA
B17: 105948264_105948384_109_5pUTR_ENSG00000149313_ENST00000278618|human|control|control (ssRNA)
RNA: GGGAGUUCUACAGUCCGACGAUCGUGGCCCCACCCCCUUCUUCCCGGCGUCCGUGCGCAGGGGACGGGCCGUCGCUACGCAGACUGGCCCACCGACAGCCCUCCCAGCCCGCCCCCGACUCAGCCACCUCCUCUCGGAGAAAGCAACAGAGGAUUGAGCAUCA
B18: chr1:52977185:52977186:+_ENSMUSG00000041426_ENSMUST00000044478|mus_mus|motif|central (ssRNA)
RNA: GGGAGUUCUACAGUCCGACGAUCUUUGCUCCAAAAUAAACUUUAGAAUUUCAAAUCACUGCUUCCCAGAGAUUUAAAGUAACGGUUCAAGUCUUCAUCCGUAACAUCUUUUAGAUUGGCUGGUUUCCAUUUUGGAGUCUGGUCCAACAGAGGAUUGAGCAUCA
B19: chr8:27591085:27591086:-_ENSG00000147419_ENST00000356537|hu_hu|FALSE|FALSE (ssRNA)
RNA: GGGAGUUCUACAGUCCGACGAUCUGGAUGUGAGCUUGCUCUGGCAGCAGCAGUGCUGUCCUUGUUUCUGAGCUGCCACCUAUUCACUGGAGUUAGGUGGGUCAAAGCUGAAAUUUAGCUUGGAAUUUAAGUUUCUAAUUUUAUCAACAGAGGAUUGAGCAUCA
B20: 72187318_72187438_6261_3pUTR_ENSG00000148730_ENST00000373218|human|control|control (ssRNA)
RNA: GGGAGUUCUACAGUCCGACGAUCCCAGGGCUGCAGGCAGAGAGCCAUAAGCAAAGAGAAUCCACAGACCCGCUGAACAGGGACUCAAGCCUUCUCCUAAAUCUAAGCUUUGCCAAAAGGUUAUCAACUUCCAGGACCAGCCUACAACAGAGGAUUGAGCAUCA
B21: chr3:58352644:58352645:+_ENSMUSG00000027810_ENSMUST00000029387|mus_hu|FALSE|FALSE (ssRNA)
RNA: GGGAGUUCUACAGUCCGACGAUCCUUGUGCAAGAUAGAGCCAGUAUAAUGCCAAAUUUUGUAUCCAUUAUUAACCCGUAACCUGGGAGCACAUGUAGCUGUUAAAAUAUGCUCACCAUCCGGGCACCAAGCAAAAUAUGUAGACAACAGAGGAUUGAGCAUCA
B22: 98756215_98787438_173_CDS_ENSMUSG00000028556_ENSMUST00000030286|mouse|control|control (ssRNA)
RNA: GGGAGUUCUACAGUCCGACGAUCGUGGGAUAUAUUGCCAACUAUGUUGAGGUUUUUGAGCAGCUGGGGGGAACCACUGUAUUGUCCGGAGAUCUGCUUUCUAACUUCAGCAGCAACAGUUCUGCUGAUCUUCUGAGCGAAGGCCAACAGAGGAUUGAGCAUCA

target: T1, UNK ZnF1-3; test: nsRBNS (natural sequence RNA bind-n-seq); RBNS binding buffer (assumed for nsRBNS): 25 mM Tris pH 7.5, 150 mM KCl, 3 mM MgCl2, 0.01% Triton X-100, 500 ug/ml BSA, 20 U/ml SUPERase-In, 4 C; UNK is unkempt and MSI1 is Musashi-1; names of the RNAs are library labels; protein concentration not given here; high values mean tight binding

For B1, which binding signal is on record?
Its binding signal is 0.607 enrichment R.

How did the binding signal turn out when B2 was run?
Its binding signal is 0.57 enrichment R.

B3 was tested. Which binding signal did it give?
Its binding signal is 0.701 enrichment R.

Which binding signal does the source give for B4 here?
Its binding signal is 0.394 enrichment R.

With B5 as the binder, how does the binding signal read?
Its binding signal is 0.427 enrichment R.

For B6, which binding signal is on record?
The binding signal was 0.809 enrichment R.

How did the binding signal turn out when B7 was run?
The binding signal was 0.805 enrichment R.

B8 was tested. Which binding signal did it give?
Its binding signal is 1.17 enrichment R.

For B9, which binding signal is on record?
The binding signal was 1.23 enrichment R.

Which binding signal does the source give for B10 here?
The binding signal was 1 enrichment R.

For B11, which binding signal is on record?
Its binding signal is 0.679 enrichment R.

B12 was tested. Which binding signal did it give?
The binding signal was 0.868 enrichment R.

For B13, which binding signal is on record?
The binding signal was 1.23 enrichment R.

With B14 as the binder, how does the binding signal read?
Its binding signal is 0.891 enrichment R.

Which binding signal does the source give for B15 here?
Its binding signal is 1.07 enrichment R.

Which binding signal does the source give for B16 here?
Its binding signal is 1.27 enrichment R.

For B17, which binding signal is on record?
Its binding signal is 1.15 enrichment R.

Which binding signal does the source give for B18 here?
Its binding signal is 0.948 enrichment R.

With B19 as the binder, how does the binding signal read?
Its binding signal is 0.555 enrichment R.

For B20, which binding signal is on record?
The binding signal was 1.22 enrichment R.

How did the binding signal turn out when B21 was run?
The binding signal was 1.6 enrichment R.

For B22, which binding signal is on record?
The binding signal was 0.684 enrichment R.

— PMC12136788
